Source: PubChem BioAssay AID504339 (National Center for Advancing Translational Sciences (NCATS), 2011)
Several values for one entry are separate records, joined by “and”; a condition that tells them apart may be missing. Equal values may be shown once. Hit rate of the full screen: of about 390,000 compounds, about 17,000 (4.4%) were called active. The shares of active, inactive and inconclusive entries below differ from those in the screen. The call rests on the fitted dose curve; in most records, active means well fitted inhibition curve with a large enough effect; inconclusive means small, poorly fitted or top-dose-only effect; inactive means no such curve, though single readings can be large or run the other way. Where the call is inconclusive, the potency comes from a doubtful curve fit.

Each molecule was assayed against Lysine-specific demethylase 4A (Homo sapiens) (UniProt O75164) (assay: qHTS Assay for Inhibitors of JMJD2A-Tudor Domain). Conditions: AlphaScreen JMJD2A-Tudor / H3K4me3 peptide binding; activity change, negative = inhibition: at 114 µM (top of the series).
Chain of UniProt O75164 (O75164 whole entry, looked up, the tested form may be a part): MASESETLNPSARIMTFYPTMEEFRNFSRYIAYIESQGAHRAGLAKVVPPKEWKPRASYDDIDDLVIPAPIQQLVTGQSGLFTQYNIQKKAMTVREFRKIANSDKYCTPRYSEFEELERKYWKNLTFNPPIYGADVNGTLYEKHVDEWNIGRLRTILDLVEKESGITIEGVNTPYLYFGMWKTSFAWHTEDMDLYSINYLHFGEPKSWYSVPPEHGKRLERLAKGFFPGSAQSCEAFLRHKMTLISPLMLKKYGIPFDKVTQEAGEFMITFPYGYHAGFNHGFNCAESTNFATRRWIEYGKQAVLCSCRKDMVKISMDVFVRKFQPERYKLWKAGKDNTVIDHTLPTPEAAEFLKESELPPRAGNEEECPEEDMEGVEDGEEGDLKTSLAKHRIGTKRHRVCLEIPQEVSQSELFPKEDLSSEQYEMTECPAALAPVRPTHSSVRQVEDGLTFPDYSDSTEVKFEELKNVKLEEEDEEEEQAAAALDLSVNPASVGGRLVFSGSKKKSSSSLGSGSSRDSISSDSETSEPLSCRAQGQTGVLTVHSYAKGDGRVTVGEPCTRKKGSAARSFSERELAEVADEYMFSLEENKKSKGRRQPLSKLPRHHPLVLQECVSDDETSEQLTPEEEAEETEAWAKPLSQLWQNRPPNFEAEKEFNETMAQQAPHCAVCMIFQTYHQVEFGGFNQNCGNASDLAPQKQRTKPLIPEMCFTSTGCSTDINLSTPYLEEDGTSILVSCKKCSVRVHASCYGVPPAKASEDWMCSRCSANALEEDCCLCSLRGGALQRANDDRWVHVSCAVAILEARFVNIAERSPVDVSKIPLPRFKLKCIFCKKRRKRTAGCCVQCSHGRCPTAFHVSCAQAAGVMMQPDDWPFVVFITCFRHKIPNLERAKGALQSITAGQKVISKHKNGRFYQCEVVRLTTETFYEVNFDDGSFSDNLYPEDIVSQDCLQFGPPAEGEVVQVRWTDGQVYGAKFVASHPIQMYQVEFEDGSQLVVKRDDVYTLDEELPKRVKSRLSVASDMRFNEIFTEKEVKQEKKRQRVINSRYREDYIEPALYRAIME
Further: nearly all actives have a fitted effect of over 50% in size.
On the % scale 0 is the no-effect control and ±100 the full control effect; potency means the concentration at half of the fitted maximal effect; tags describe the fitted curve by direction and shape.

Compound	Potency	activity change, negative = inhibition
CCc1nnc(NC(=O)c2sc3nc4c(cc3c2N)CCCCCC4)s1	inactive	
CCNC(=O)c1ccc2c(c1)C1C3CCC(C3)C1C(c1ccccc1)N2 (stereo unspecified)	inconclusive: 79.4 µM [inhibitor, single point]	
CCSc1nc2ccccc2n1CC(=O)N1CCOCC1	inconclusive: 20 µM [inhibitor, partial curve]	
Cc1c(C(=O)NCCN(C)C)oc2ccc(S(=O)(=O)N3CCCC3)cc12	inconclusive: 50.1 µM [inhibitor, partial curve]	
CN(C)CCNC(=O)C(=O)NCC1CCCN1S(=O)(=O)c1cccs1 (stereo unspecified)	inconclusive: 31.6 µM [inhibitor, single point]	
CCOC(=O)c1c(-c2ccc(C)cc2)csc1NC(=S)NC(=O)c1ccccc1	inconclusive: 10 µM [inhibitor, full curve, poor fit]	
Oc1ccc(-c2nc(-c3ccccc3)c(-c3ccc(Br)cc3)[nH]2)cc1	inconclusive: 70.8 µM [inhibitor, single point]	
O=C(c1cc(-c2ccccc2)nn1CC1CC(c2cccnc2)=NO1)N1CCOCC1 (stereo unspecified)	inconclusive: 89.1 µM [inhibitor, single point]	
COc1ccccc1NC(=O)C1CCN(S(=O)(=O)c2ccc3[nH]c4c(c3c2)CCCCC4)CC1	inactive	
O=C(NC1CCCCC1)C(c1cccs1)N(CCCN1CCOCC1)C(=O)c1ccc(-c2ccccc2)[nH]1 (stereo unspecified)	inconclusive: 56.2 µM [inhibitor, partial curve]	
C/C(=N/NC(N)=S)c1cc2ccc(O)cc2oc1=O	inconclusive: 17.8 µM [inhibitor, partial curve]	
Cc1ccc(-c2n[nH]c(=S)n2C)cc1Cl	active: 3.16 µM	
COc1ccc(CCNc2oc(COc3ccc(F)cc3)nc2C#N)cc1	inconclusive: 44.7 µM [inhibitor, partial curve]	
CCC(C)N1C(=O)S/C(=C/c2ccc3c(c2)n(C)c(=O)n3C)C1=O (stereo unspecified)	inconclusive: 22.4 µM [inhibitor, full curve]	
COc1ccc(Oc2coc3cc(OC(=O)c4cccs4)ccc3c2=O)cc1	inactive	
COc1ccc(-c2noc(CN3CCCC(OCc4ccccn4)C3)n2)cc1 (stereo unspecified)	inactive	
Cc1cccc(C)c1NC(=O)CCS(=O)(=O)c1ccc2c(c1)n(C)c(=O)c(=O)n2C	inactive	
COc1ccc(-c2csc3nc(-c4ccc(F)cc4)oc(=O)c23)cc1OC	inactive	
CC(C)CCn1c(=O)c2ccccc2n2c(=S)[nH]nc12	active: 3.55 µM	
CC1CCc2[nH]c3ccc(C(=O)NCC4CCCO4)cc3c2C1 (stereo unspecified)	inconclusive: 39.8 µM [inhibitor, partial curve]	
COc1cc(NS(=O)(=O)c2ccc(NS(=O)(=O)c3ccccc3)cc2)nc(OC)n1	inactive	
O=C(OCC(=O)N1CCN(c2ccccc2)CC1)c1cc(Cl)ccc1[N+](=O)[O-]	inconclusive: 50.1 µM [inhibitor, partial curve]	
O=C(O)CCc1ccc(-c2ccccc2)o1	inconclusive: 79.4 µM [inhibitor, partial curve]	
Cc1ccc(NC(=O)C2CCCN2S(=O)(=O)c2cccc3nsnc23)c(Br)c1 (stereo unspecified)	inconclusive: 56.2 µM [inhibitor, partial curve]	

Compound	Potency	activity change, negative = inhibition
COc1ccc(/C=N/NC(=O)CCOc2ccccc2C)cc1OC	inactive	
Cc1ccc2oc(=O)c3cc(C(=O)NCc4ccc(Cl)cc4)sc3c2c1	inconclusive: 31.6 µM [inhibitor, partial curve]	
Cc1ccc2cccc(NC(=S)NC(=O)c3ccccc3)c2n1	inconclusive: 50.1 µM [inhibitor, partial curve]	
CCOc1ccc(NC(=S)N2CCCN(Cc3cc(C)ccc3C)C2)cc1	inconclusive: 56.2 µM [inhibitor, partial curve]	
COc1ccc2c(c1)OC[C@H]1[C@H]2N2C(=O)CN(CCc3c[nH]c4ccccc34)C(=O)[C@@]2(C)[C@H]1c1ccccc1	inactive	
CN(Cc1ccon1)C(=O)CC1C(=O)NCCN1CC(C)(C)C (stereo unspecified)		inactive: -9.77% [at 11.4 µM]
COC(=O)c1c[nH]c(=S)n1Cc1ccccc1	active: 2.82 µM	
COc1ccccc1C(=O)NCC(c1cccs1)N1CCc2ccccc21 (stereo unspecified)	inconclusive: 14.1 µM [inhibitor, full curve]	
CC1CCCCN1C(=O)c1ccc(C(=O)c2ccccc2)cc1 (stereo unspecified)	inactive	
CCOc1ccc(CCNC(=O)CSC(=S)N2CCCC2)cc1OCC	inconclusive: 20 µM [inhibitor, full curve]	
Cc1cc(OCC(=O)OCC(=O)Nc2cccnc2Cl)ccc1Cl	inactive	
O=[N+]([O-])c1cccnc1Oc1ccc(C2SCCS2)cc1	inconclusive: 44.7 µM [inhibitor, partial curve]	
Cc1ccc(-n2nc(-c3cccs3)cc2C(=O)NCC2CCCO2)c(C)c1 (stereo unspecified)	inconclusive: 56.2 µM [inhibitor, partial curve]	
Cc1sc(NC(=O)c2ccco2)c(C(=O)c2ccc(Cl)cc2)c1C	inconclusive: 50.1 µM [inhibitor, partial curve]	
O=c1c2ccccc2nc(-c2ccc([N+](=O)[O-])cc2)n1O	inconclusive: 10 µM [inhibitor, full curve]	
Cc1ccc(S(=O)(=O)N2CCN(CC(=O)N(CC(C)C)c3c(N)n(CC(C)C)c(=O)[nH]c3=O)CC2)c(C)c1	inactive	
CC(NC(=O)/C=C/c1ccco1)c1nc2ccccc2n1Cc1cccc(Cl)c1 (stereo unspecified)	inactive	
CCOC(=O)C1=C(NC(=S)NC(=O)c2ccccc2)c2ccccc2CC1(C)CC (stereo unspecified)	inconclusive: 50.1 µM [inhibitor, partial curve]	
C#CCCC(=O)c1ccccc1/C=[N+](\[O-])c1ccccc1	inconclusive: 100 µM [inhibitor, partial curve]	
CCN(CC)CCC(c1ccc2c(c1)OCO2)c1c(OC)cc(OC)c2c(-c3ccccc3)cc(=O)oc12 (stereo unspecified)	inconclusive: 56.2 µM [inhibitor, partial curve] and inconclusive: 44.7 µM [inhibitor, partial curve]	
CN(C)CCn1nnc2c(=O)oc3ccccc3c21	inactive	
COc1ccc(C(=O)CC(=O)C(=O)Nc2ccc(C)c(Cl)c2)cc1	inactive	
CCC1Nc2ncnc(N3CCCCC3)c2N(Cc2ccc(Cl)cc2)C1=O (stereo unspecified)	inconclusive: 70.8 µM [inhibitor, single point]	
CN1C(=S)N(c2cccnc2)C(=O)/C1=C\c1ccc(C(C)(C)C)cc1	inconclusive: 17.8 µM [inhibitor, full curve]	

Compound	Potency	activity change, negative = inhibition
C=CC1CN(C(=O)OCC(Cl)(Cl)Cl)C2CC3c4ccc(OC)cc4NC3C3CC1C2CO3 (stereo unspecified)	inconclusive: 44.7 µM [inhibitor, partial curve]	
COc1cc(-c2nc(-c3ccc4c(c3)-c3ccccc3S4(=O)=O)c(-c3ccccc3)[nH]2)cc(OC)c1OC	inactive	
Cc1cccc(N=C2NC(=O)S/C2=C\c2ccco2)c1	active: 39.8 µM	
CC1CCc2c(sc(N)c2C(=O)OC(C)C)C1 (stereo unspecified)	inconclusive: 56.2 µM [inhibitor, partial curve]	
O=C1NC(c2ccc(-c3ccccc3[N+](=O)[O-])o2)C(C(=O)c2ccccc2)C(O)(C(F)(F)F)N1 (stereo unspecified)	inconclusive: 100 µM [inhibitor, partial curve]	
CCN(CC)CCN(C(=O)C1CCCCC1)c1nc2cc3c(cc2s1)OCO3	inconclusive: 50.1 µM [inhibitor, partial curve]	
CCn1c(=O)n(-c2ccc3c(c2)OCO3)c2nc(-c3cc(OC)ccc3OC)nc(C(N)=O)c21	inactive	
COc1ccc(N2CCN(C(=O)CCc3ccc(S(=O)(=O)NCC(C)C)cc3)CC2)cc1	inactive	
CNC(=O)COc1ccc(S(=O)(=O)Nc2ccc(OC)cc2)cc1	inactive	
N#Cc1nc(COc2ccc(-c3ccccc3)cc2)oc1NCc1cccnc1	active: 44.7 µM	
COc1ccc(-c2csc(NS(=O)(=O)c3ccc([N+](=O)[O-])cc3)n2)cc1	inconclusive: 44.7 µM [inhibitor, partial curve]	
CC1=NN(Cc2ccccc2)C(=O)C1C(c1ccncc1)C(C#N)C#N (stereo unspecified)	inactive	
COc1ccc(NC(=S)N2CCCN(Cc3cccc(Cl)c3)C2)cc1	inconclusive: 50.1 µM [inhibitor, partial curve, poor fit]	
O=S1(=O)N=C(SCCO)c2ccccc21	inconclusive: 44.7 µM [inhibitor, partial curve]	
Cc1ccc(NC(=O)c2nc[nH]c2C(=O)N2CCCCC2)c(C(=O)c2ccccc2)c1	inconclusive: 56.2 µM [inhibitor, partial curve]	
O=C1c2cccc3cccc(c23)C(=O)N1CCN1CCN(CC(O)COc2ccc3ccccc3c2)CC1 (stereo unspecified)	inconclusive: 39.8 µM [inhibitor, single point]	
CC(=O)C[C@H]1c2cc(C(F)(F)F)ccc2S(=O)(=O)N1C1CCCCC1	inactive	
Cc1ccc(N2C(=O)C(F)(F)C2c2ccccc2)cc1 (stereo unspecified)	inactive	
CN(c1ccccc1C(=O)Nc1ccc(F)c(Cl)c1)S(C)(=O)=O	inactive	
N#C/C(=C\c1ccc(Cl)c([N+](=O)[O-])c1)c1ccccn1	inconclusive: 44.7 µM [inhibitor, partial curve]	
Cc1ccc(-c2csc(NCCn3c(C(F)(F)F)nc4ccccc43)n2)cc1	inactive	
CCOc1ncccc1C(=O)Nc1ccc(C(=O)Nc2ccc(OC)cc2)cc1	inactive	
CC(=NNC(=S)N1CCN(C2CCCCCC2)CC1)c1ccccn1	active: 17.8 µM	
